Consider 44 compounds from publication PMC4336329 (PLoS ONE, 2015).

Each structure is given as a SMILES string. Hit rate of the full screen: of about 310,000 compounds, about 14,000 (4.5%) showed an effect of 50% or more. The effect is printed as a negative number. The list shows a part of the results.
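Also: peak tail current of the secondary pulse compared with the same well before compound.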

The target of this assay is human ether-à-go-go-related gene (hERG) potassium channel (human, UniProt Q12809). As to the kind of experiment: primary screen, population patch clamp on CHO cells stably expressing hERG.
Sequence of human ether-à-go-go-related gene (hERG) potassium channel (Q12809 whole entry, looked up): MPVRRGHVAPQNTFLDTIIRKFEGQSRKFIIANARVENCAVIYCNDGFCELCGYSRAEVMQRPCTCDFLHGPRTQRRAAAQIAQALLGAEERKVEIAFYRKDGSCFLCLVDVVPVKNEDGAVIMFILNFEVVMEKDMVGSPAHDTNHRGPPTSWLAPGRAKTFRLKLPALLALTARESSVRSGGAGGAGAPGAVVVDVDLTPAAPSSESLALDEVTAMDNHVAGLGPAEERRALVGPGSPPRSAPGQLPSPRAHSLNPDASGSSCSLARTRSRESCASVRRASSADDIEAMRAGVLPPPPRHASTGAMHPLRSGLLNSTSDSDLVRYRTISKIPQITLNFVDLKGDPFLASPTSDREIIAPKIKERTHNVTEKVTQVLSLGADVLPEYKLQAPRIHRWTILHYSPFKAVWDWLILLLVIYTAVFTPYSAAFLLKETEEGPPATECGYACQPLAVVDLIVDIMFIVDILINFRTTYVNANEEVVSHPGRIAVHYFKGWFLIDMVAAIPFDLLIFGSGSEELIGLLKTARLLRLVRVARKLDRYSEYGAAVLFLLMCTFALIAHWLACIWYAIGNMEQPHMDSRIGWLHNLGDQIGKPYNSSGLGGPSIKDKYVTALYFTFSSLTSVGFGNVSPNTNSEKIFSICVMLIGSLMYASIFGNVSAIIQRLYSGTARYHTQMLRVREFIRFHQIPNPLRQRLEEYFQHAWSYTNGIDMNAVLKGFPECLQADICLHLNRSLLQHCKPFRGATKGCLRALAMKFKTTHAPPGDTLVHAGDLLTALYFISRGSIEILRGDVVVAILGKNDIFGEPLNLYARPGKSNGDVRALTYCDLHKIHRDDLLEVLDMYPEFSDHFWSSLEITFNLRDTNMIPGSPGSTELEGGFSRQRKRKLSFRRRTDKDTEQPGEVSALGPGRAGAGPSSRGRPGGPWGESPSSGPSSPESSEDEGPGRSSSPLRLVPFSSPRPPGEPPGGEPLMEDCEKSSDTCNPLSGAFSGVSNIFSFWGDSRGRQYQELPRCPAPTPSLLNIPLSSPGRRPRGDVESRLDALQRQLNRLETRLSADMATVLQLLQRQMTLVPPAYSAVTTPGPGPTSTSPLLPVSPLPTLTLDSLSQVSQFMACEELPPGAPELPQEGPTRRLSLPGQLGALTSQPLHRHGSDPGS
For `Cc1ccc(NC(=O)N2CCN(c3ncccc3C(F)(F)F)CC2)cc1`, the “hERG current change (%, negative = inhibition) at 10uM” value is -15.7%. For `CC(C)(C)c1ccc(CN2C(=O)CSC2=O)cc1`, the “hERG current change (%, negative = inhibition) at 10uM” value worked out at 11.8%. As to `CC1=CC(C)(C)n2c(O)c(N=NC(N)=S)c3cc(C)cc1c32`, the “hERG current change (%, negative = inhibition) at 10uM” value was 14.2%. Consider `CCOC(=O)C1(Cc2ccc(OC)cc2)CCN(C(=O)c2ccc3[nH]ccc3c2)CC1`, for which the “hERG current change (%, negative = inhibition) at 10uM” value was -36%.

For `CCC(=O)N1CCc2cc(S(=O)(=O)CCC(=O)Nc3cccc(C)n3)ccc21`, the “hERG current change (%, negative = inhibition) at 10uM” value is listed as -0.596%. In the case of `Cc1cccc(NC(=O)C2C3CCC4C(CCC32)C4(Cl)Cl)c1` (centres unmarked) it was 2.1%; in that of `COc1ccc(-c2nn(CCC#N)cc2C(=O)NCc2ccccc2)cc1OC`, -42.3%; in that of `O=C(Nc1cccc2c1CCCC2)c1cccc(F)c1`, 12.5%. In the case of `COc1ccc(NC(=O)Cn2c(=O)oc3cc(S(=O)(=O)N4CCCC4)ccc32)c(OC)c1` it was 7.38%. In the case of `Cc1ccc2nc(-c3ccccc3)c(CN3CCOCC3)n2c1` it was -12%; in that of `O=C(CCN1C(=O)COc2ccccc21)NCCCN1CCc2ccccc2C1`, -15.4%; in that of `O=C(COC(=O)C1CCN(c2ccc(C(F)(F)F)cn2)CC1)c1ccc(F)cc1`, -0.831%. With `O=S1(=O)c2cccc3cccc(c23)N1CCBr`, the “hERG current change (%, negative = inhibition) at 10uM” value is reported as -20%.

Consider `COc1ccc(C(C(=O)NC2CCCCC2)N(C(=O)CCCC(=O)Nc2ccccn2)c2ccc3c(c2)OCCO3)cc1` (centres unmarked), for which the “hERG current change (%, negative = inhibition) at 10uM” value is -15.5%.

As for `COc1ccc(Cl)cc1C(=O)NNC(=O)c1ccncc1`, the “hERG current change (%, negative = inhibition) at 10uM” value is 8.75%. For the compound `O=C(/C=C/c1ccc(OC(F)F)cc1)OCC(=O)N1CCN(C(=O)c2ccco2)CC1`, the “hERG current change (%, negative = inhibition) at 10uM” value is given as -71%. In the case of `COC(=O)c1sccc1NC(=O)Nc1ccc(C)c(C)c1` it was 2.3%. For `CCOc1ccc(CCNC(=O)COC(=O)c2nc3nc(C)cc(C)n3n2)cc1OCC`, the “hERG current change (%, negative = inhibition) at 10uM” value is given as -15.6%.

`CC1CCN(c2ccc3c(c2)S(=O)(=O)c2cccc(C(=O)NC4CCCCC4)c2C3=O)CC1`: the “hERG current change (%, negative = inhibition) at 10uM” value stood at 0.473%. Regarding `COC(=O)C(Cc1cncn1COCc1ccccc1)NC(=O)OC(C)(C)C` (centres unmarked), the “hERG current change (%, negative = inhibition) at 10uM” value is 10.3%. In the case of `Cc1nn(-c2ccccc2)c2c1C1(C(=O)N(C)c3ccccc31)C(C#N)=C(N)O2` (centres unmarked) it was 11.6%; in that of `Cc1ccc(N(C(=O)CNC(=O)c2ccco2)C(C(=O)NC2CCCCC2)c2cccnc2)cc1` (centres unmarked), -12.2%. `C=CCC(C)(NCc1ccccc1)c1ccccc1.Cl` (centres unmarked): the “hERG current change (%, negative = inhibition) at 10uM” value is on record as -36.4%. In the case of `CCC(=O)N(c1nnc(SCC(=O)Nc2ccccc2Cl)s1)C1CC1`, the “hERG current change (%, negative = inhibition) at 10uM” value was -4.24%. In the case of `CCOC(=O)N1CCN(c2c(N3CCc4ccccc4C3)c(=O)c2=O)CC1` it was -34.8%; in that of `CC(Sc1nc2c([nH]c3ccccc32)c(=O)n1C)c1ccccc1` (centres unmarked), 17.5%. Take `CC(C)(C)c1ccc(NC(=O)C(=O)C2C(=O)Nc3ccccc32)cc1` (centres unmarked): the “hERG current change (%, negative = inhibition) at 10uM” value was -5.17%. Turning to `O=C1C=C(Nc2cccc(Cl)c2)CC(c2ccco2)C1` (centres unmarked), the “hERG current change (%, negative = inhibition) at 10uM” value is -4.15%. In the case of `CCn1c(C)cc(/C=C2\NC(=O)N(CC(=O)Nc3ccc(F)cc3)C2=O)c1C` it was 13.3%. In the case of `CN(C)C1=NCCN1CC1CCCCC1` it was 9.89%; in that of `CC(C(=O)Nc1ccccc1Oc1ccccc1)c1ccccc1` (centres unmarked), -19.4%. Consider `CCOC(=O)CSc1nnc(CSc2nc(N)c3c(C)c(C)sc3n2)n1-c1ccccc1`, for which the “hERG current change (%, negative = inhibition) at 10uM” value is reported as -7.72%. Consider `O=C(C1CCN(S(=O)(=O)c2ccccc2)CC1)N1CCN(Cc2ccccc2)CC1`, for which the “hERG current change (%, negative = inhibition) at 10uM” value is 12.9%.

For the compound `CCCCCCNC(=O)CSc1nccn1Cc1ccccc1`, the “hERG current change (%, negative = inhibition) at 10uM” value is on record as -20.2%. For `COc1ccc(CCN(Cc2nc3ccccc3c(=O)[nH]2)C(=O)c2ccco2)cc1`, the “hERG current change (%, negative = inhibition) at 10uM” value is recorded as -7.06%. `COc1ccc(C(=O)N2CCN(c3cccc(Cl)c3)CC2)cc1`: the “hERG current change (%, negative = inhibition) at 10uM” value was -36%. Take `CCNC(=S)N/N=C/c1ccccc1[N+](=O)[O-]`: the “hERG current change (%, negative = inhibition) at 10uM” value came to 18.6%. On to `CCCCC(=O)NNC(=S)NCc1ccccc1`, for which the “hERG current change (%, negative = inhibition) at 10uM” value came to 15.5%. In the case of `CCOC(=O)c1c(C)[nH]c(C)c1S(=O)(=O)NCc1ccccc1C` it was -5.92%; in that of `Cc1cc(Cl)c(S(=O)(=O)N2CCCC2)cc1OCC(N)=O`, 5.11%; in that of `CCCc1cc(N2CCCC(C(=O)NCc3ccc4c(c3)OCO4)C2)n2ncnc2n1` (centres unmarked), -78.4%. On to `O=C(CCCN1CCC(C(=O)c2ccc(F)cc2)CC1)c1ccc(F)cc1`, for which the “hERG current change (%, negative = inhibition) at 10uM” value is reported as -78.5%. In the case of `Cl.c1ccc(-c2nc(NCc3ccco3)c3oc4ccccc4c3n2)cc1` it was 12.9%. In the case of `CCN1C(=O)[C@H]2[C@@H](c3ccc(-c4ccccc4)cc3)N3CCC[C@@]3(C(=O)OC)[C@H]2C1=O.O=C(O)C(F)(F)F` it was -0.397%.
